Source: the RNAGym collection of RNA variant scans (doi:10.7554/elife.90254)
Read counts are not given, so values of variants with three or more changes are uncertain.

B1: LINE1-full (parent)
chain: UACGUAGGUGGUUUUCCCCUGAUAGUGCUAAGGGGGCCUGGAAGUUUGGACUGGGCAGAGCUCAACACAGCGUGGCAAAGUGGCUGUGGCUAGACUGCCUCUCUGGAUUCCUCGUCACUCAGCAGGGCAUCUCUGAGAGAAAUGCC

Variants of: B1
Assay: self-cleavage, relative activity (ratio to wild type); higher = more cleavage; in vitro, sequencing; the parent is a self-cleaving ribozyme

| Variant | self-cleavage |
| --- | --- |
| U62C C113U A129G | 0.21 |
| U73A U109C A138G A141G U143A | 0.41 |
| A31G U132C A140G | 0.78 |
| U9C C71U A92G A141G | 0.13 |
| U73A A79U C84U A129G | 0.04 |
| A64G U81A U85C | 0 |
| U14A U29C A77U | 0.88 |
| A92U A117G C128U A140U | 0.73 |
| U29A A42G A79G | 1.6 |
| G35A U108C U109C A124G A136G | 0 |
| U5A U96A A140G | 0.19 |
| A22U U73A U100C A124G | 2.56 |
| A43U A107G A141G | 0.67 |
| U12C A64G A65G A77G | 0 |
| U52A U81A U87C A124G | 0.72 |
| U14C U119C U132C U134G | 0.3 |
| A22G G27A G70A U115A | 0.07 |
| U20A G33U U87A A138G | 0.05 |
| G7U A77G U115A | 2.22 |
| A43G U102A A136U | 1.31 |
| U12G A57G A59G U96C | 0.84 |
| U5A U96C U108C | 0 |
| A30G A42G U115C | 0.4 |
| U26A U47A A138U | 0.62 |

| Variant | self-cleavage |
| --- | --- |
| G55A U73C U87A A94U U115A | 0.02 |
| A79G A140G G144A | 1.3 |
| U12A A22C U39C | 1.06 |
| U15A A78U U87C G89A | 0.09 |
| U47G G114A A141G | 0.8 |
| G7A A30G U130A | 0.55 |
| U20C U46A U115C | 2.3 |
| A69G A78G U87C | 0 |
| U9A A65G U87A A121G | 0.11 |
| A22G U100A G125A | 0.32 |
| U14C G21A U102C A124G U130C | 1.15 |
| U14C U96A U109C | 0.45 |
| A31U U73A A77U | 1.45 |
| A2G G41A G86A | 0.23 |
| U14C C37U G74A U112C U119A | 0.91 |
| G10A U12G A59G U85C U134C | 1.08 |
| U1C U20C A94G | 0.1 |
| A42G A64G U96A U130A C131U | 0.06 |
| G40A U46C U87C | 0 |
| U12C U14C G34A U96A A140G G144A | 0.12 |
| U15A A67G U115A A138G | 0.11 |
| U81A A107G A140G | 2.46 |
| U62C A117U C120U | 0.01 |
| U5C U9C A50U U85C U87A U132C U134C | 0 |

| Variant | self-cleavage |
| --- | --- |
| U62C A79U G127A A129G | 0.03 |
| U12G A24G A77U G126A A142G | 0.77 |
| U12C G49U A50U U62A A141U | 0.06 |
| A22G G25A U143A | 0.48 |
| G35U U45C A69G | 0 |
| U39C A94G U119C U143G | 0 |
| U14C U26C U47G A64G A140G | 0 |
| G48U U85C U100C | 0.42 |
| A22C G34U A138G | 2.06 |
| A67U U81A U102C | 0.07 |
| A57G A64G U134C A141G | 0 |
| A30G U85C U104C A121U | 0 |
| C19A A57U A67C A117G | 0 |
| U39A U87A U108C | 0.12 |
| C56U A69G U104C | 0.07 |
| U87A U96C A141G | 0.01 |
| A22G G33U U45C A57G U115C | 0 |
| U62C A67G A77G | 0 |
| U45C G83A U87G A121U | 0.03 |
| U12C A121U U143C | 1.71 |
| U1C G10A U29C A78G G80A | 1.94 |
| A67G U73G A117G | 1.72 |
| A77U U96A C116U | 0.03 |
| A43G G88A A129U | 0.03 |

| Variant | self-cleavage |
| --- | --- |
| A2G U45C U62C | 0 |
| G10A U45G U112C | 0.87 |
| A67G U73A A140U | 0.51 |
| U13C U73C U143A | 1.91 |
| A22U U87A U102C | 0.1 |
| A57U G86A A141G | 0.04 |
| A67G A79G A142G | 0 |
| C103G U104G A141G | 0.96 |
| U115C U134C A138G | 1.53 |
| U9A U85C U112C | 0.39 |
| C18U G60A A77G A124G | 0.04 |
| A6G A59G C76U U100C | 0.32 |
| A30U A42G A79U U102A U143C | 1.22 |
| A6G C56U A117G U130C | 0.62 |
| U5C A6G G70A | 0.62 |
| C19A A24G U115C A138G U143C | 2.01 |
| A22G U47C A136G U143C | 1.58 |
| U12C U45A C113U | 1.38 |
| G49U A50G U85C U132C | 0.1 |
| U5C U14C C16G G36U A59G | 0.35 |
| U9A A42G A65U A79C U115C | 0 |
| A2G U13C U112C | 0.85 |
| A64G A65C A94U | 0.1 |
| A57U C63U C76U A79G | 0.06 |

| Variant | self-cleavage |
| --- | --- |
| U85A U109A A124G | 0.09 |
| A22G A64G A69G U91A A124G | 0 |
| U12C A42G A94G U100A A136G | 1.15 |
| U20C U62C A92G U143C | 0 |
| U62C A78U A136G | 0 |
| A6G U46A U52C | 0.41 |
| G10A G44A A59G | 0.15 |
| A57U C63A A138G | 0.04 |
| C3U G7U A31G | 0.67 |
| U9G U47C C131U | 1.05 |
| U52A A57U A67G U102C | 0.09 |
| U45A C56U A142G | 0.25 |
| A30U A69C A94G | 0.25 |
| U15A G34A A78G | 0.84 |
| A57G G70A A121G A140G | 0.11 |
| U73C A138G U143C | 2.04 |
| A2G A69U U85C A136U | 0.53 |
| C19U U46C A117U | 0.84 |
| U14C A78G C118U | 1.67 |
| A24U U47C U62C C84U U85A A107G A124U A141G | 0.02 |
| U14C U39A A142G | 1.34 |
| A77G C84U A107U A136U | 0.36 |
| U20C A67U U73C A141G | 0.2 |
| A79C A94U U112C | 0.34 |

| Variant | self-cleavage |
| --- | --- |
| A42G U47A C76U U100C U119A U143G | 2.62 |
| A42G A78G U104A A121U | 0.97 |
| U13C U62G U112A A121G | 0 |
| C116U U132C A136U | 1.19 |
| U12C U20C A24G A42U U46G U132C | 0.92 |
| A6G G114A A124G | 0.78 |
| U26A A77G U109C C120U | 1.87 |
| U5A U15C U91C | 1.05 |
| U5C A78G A142G | 1.7 |
| U62C A79G U87A | 0.08 |
| A6G U23C G34A | 1.23 |
| A78G G83C A94G | 0.27 |
| A50G A77U A142G | 0.99 |
| U29C A69U U73C U102A | 0.34 |
| U47G U62A G89A | 0.03 |
| A24G U100C A117G | 1.15 |
| U20C A43U A141G | 1.56 |
| U12G A136G U143C | 1.62 |
| U45C G106A U109C | 0.71 |
| U26C U29C A142G | 1.53 |
| U87C U134A U143C | 0.18 |
| G21U A107G U119C A138G | 1.36 |
| A69U A78U A94G | 0.04 |
| U13C U23A G44U A77G U115A | 2.16 |

| Variant | self-cleavage |
| --- | --- |
| U39A U45C G55C | 0.05 |
| A42U U47C U87A | 0 |
| C18U U62C A136G C145A | 0 |
| A6C U39G U85C U134C A140U | 0.44 |
| U5C A22U A30U | 0.94 |
| G32A U52C A57G U81A U85A A142G | 0.04 |
| U46C U73A G125U | 1.62 |
| U13C U15C G83A U108A | 1.05 |
| U9A A42G A136U | 0.69 |
| U14A U52A A94G U130C U132C | 0.39 |
| U20A A22G A43G A50G | 0 |
| A77U A78G U81A G114A U132C | 2.24 |
| U46C A79U A140G | 0.87 |
| A67G U91A G122A G137U | 0.12 |
| A24G A30G C61G A124G | 0.29 |
| A64U U96C A136U G137U | 0.04 |
| C17U U112C A140G | 0.88 |
| U12G C61U A79G A138G | 0.04 |
| A2G A78U U134A | 0.4 |
| U12C G53U G89A | 0.05 |
| U52A U100A A124U | 0.99 |
| U47C A67G A79G A117U | 0 |
| U15C U47C U134C | 1.69 |
